Source: the supplement of paper PMC4604168 (melanoma cell lines)
The other results are listed elsewhere or left out. Single values are uncertain, as repeats are few or missing.

test system: UACC257; test: cell count relative to DMSO control; melanoma cells; higher = more viable cells; details: library dose: standard library concentration; 72 h
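Note: cells treated in 1,536-well plates, then fixed and DAPI-stained, with nuclei counted from automated high-throughput microscope images.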

| SMILES | cell count |
| --- | --- |
| NC(=O)c1ccc(N(C(N)=O)c2c(F)cccc2F)nc1-c1ccc(F)cc1F + Cc1cc([N+](=O)[O-])ccc1NS(=O)(=O)c1cc(Cl)ccc1Cl [FH535] (first compound 2 µM, partner dose 5 µM) | 71.1% |
| Cc1ccc(NC(=O)c2cccc(N(C)C)c2)cc1NC(=O)c1ccc(O)cc1 + N#Cc1c(O)c2c(-c3ccc(-c4ccccc4O)cc3)csc2[nH]c1=O [A769662] (first compound 10 µM, partner dose 10 µM) | 99.2% |
| NC(=O)c1ccc(N(C(N)=O)c2c(F)cccc2F)nc1-c1ccc(F)cc1F + COc1cc(N2CCC(N3CCN(C)CC3)CC2)ccc1Nc1ncc(Cl)c(Nc2ccccc2S(=O)(=O)C(C)C)n1 [NVP-TAE684] (first compound 2 µM, partner dose 0.4 µM) | 84.9% |
| CCc1ccc(CCOc2ccc(CC3SC(=O)NC3=O)cc2)nc1 (stereo unspecified) [pioglitazone] + COc1ccc2c(c1)CCC1C2CCC2(C)C(NCCCCCCN3C(=O)C=CC3=O)CCC12 [U73122] (first compound 10 µM, partner dose 2 µM) | 78.2% |
| NC(=O)c1ccc(N(C(N)=O)c2c(F)cccc2F)nc1-c1ccc(F)cc1F + COc1ccc2c(c1)CCC1C2CCC2(C)C(NCCCCCCN3C(=O)C=CC3=O)CCC12 [U73122] (first compound 2 µM, partner dose 2 µM) | 89.2% |
| NC(=O)c1ccc(N(C(N)=O)c2c(F)cccc2F)nc1-c1ccc(F)cc1F + O=S(=O)(c1ccccc1)N(CC(F)(F)F)c1ccc(C(O)(C(F)(F)F)C(F)(F)F)cc1 [T0901317] (first compound 2 µM, partner dose 7 µM) | 78% |
| CCCCCCCCc1ccc(CCC(N)(CO)CO)cc1 [fingolimod] + Cc1cc([N+](=O)[O-])ccc1NS(=O)(=O)c1cc(Cl)ccc1Cl [FH535] (first compound 10 µM, partner dose 5 µM) | 40.6% |
| CCCCCCCCc1ccc(CCC(N)(CO)CO)cc1 [fingolimod] + COc1ccc2c(c1)CCC1C2CCC2(C)C(NCCCCCCN3C(=O)C=CC3=O)CCC12 [U73122] (first compound 10 µM, partner dose 2 µM) | 61.8% |
| NC(=O)c1ccc(N(C(N)=O)c2c(F)cccc2F)nc1-c1ccc(F)cc1F + COC(=O)c1sccc1S(=O)(=O)Nc1ccc(Nc2ccccc2)cc1OC [GSK0660] (first compound 2 µM, partner dose 5 µM) | 96.1% |
| CCCCCCCCc1ccc(CCC(N)(CO)CO)cc1 [fingolimod] + Cc1cc(Nc2cc(N3CCN(C)CC3)nc(/C=C/c3ccccc3)n2)n[nH]1 [ENMD2076] (first compound 10 µM, partner dose 0.2 µM) | 76.4% |
| NC(=O)c1ccc(N(C(N)=O)c2c(F)cccc2F)nc1-c1ccc(F)cc1F + COc1ccc(-c2ccc3c(N4CCOCC4)nc(N4C[C@@H](C)O[C@@H](C)C4)nc3n2)cc1CO [KU0063794] (first compound 2 µM, partner dose 0.1 µM) | 88.5% |
| CCCCCCCCc1ccc(CCC(N)(CO)CO)cc1 [fingolimod] + O=S(=O)(c1ccccc1)N(CC(F)(F)F)c1ccc(C(O)(C(F)(F)F)C(F)(F)F)cc1 [T0901317] (first compound 10 µM, partner dose 7 µM) | 57.5% |
| CCCCCCCCc1ccc(CCC(N)(CO)CO)cc1 [fingolimod] + c1cc(-c2cnn3cc(-c4ccc(OCCN5CCCCC5)cc4)cnc23)ccn1 [Dorsomorphin] (first compound 10 µM, partner dose 2 µM) | 75.3% |
| CC(C)(C)c1cnc(CSc2cnc(NC(=O)C3CCNCC3)s2)o1 + NCC(=O)Nc1ccc(-n2nc(C(F)(F)F)cc2-c2ccc3c(ccc4ccccc43)c2)cc1 [OSU03012] (first compound 0.05 µM, partner dose 5 µM) | 58.1% |
| NC(=O)c1ccc(N(C(N)=O)c2c(F)cccc2F)nc1-c1ccc(F)cc1F + O=C(Nc1ccccc1)c1cc([N+](=O)[O-])ccc1Cl [GW9662] (first compound 2 µM, partner dose 10 µM) | 80.1% |
| CCCCCCCCc1ccc(CCC(N)(CO)CO)cc1 [fingolimod] + N#Cc1c(O)c2c(-c3ccc(-c4ccccc4O)cc3)csc2[nH]c1=O [A769662] (first compound 10 µM, partner dose 10 µM) | 80.7% |
